This passage reports z-score results from PubChem BioAssay AID488969 (Vanderbilt High Throughput Screening Facility, 2010).

Whole data set: some 110,000 compounds, median “z-score” near -0.1, cut for the highest 2% near 2. The list shows a part of the results. Calls of active or inactive are those of the source.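 Rule for the calls: active = z-score in the third read window above 3 or below -3; inactive = the rest.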

The target in this test is Metabotropic glutamate receptor 8 (Rattus norvegicus) (UniProt P70579). The test is described as follows: rat mGluR8 modulators via GIRK flux, primary screen, cell-based, thallium flux, HTS (AID 488969). The settings on record: HEK293 rat mGluR8, GIRK (G protein-gated inwardly rectifying potassium channel) thallium flux, FluoZin2; at 10 µM; stronger effect = higher value; submaximal glutamate (EC20) added with thallium.
UniProt P70579, sequence (P70579 whole entry, looked up): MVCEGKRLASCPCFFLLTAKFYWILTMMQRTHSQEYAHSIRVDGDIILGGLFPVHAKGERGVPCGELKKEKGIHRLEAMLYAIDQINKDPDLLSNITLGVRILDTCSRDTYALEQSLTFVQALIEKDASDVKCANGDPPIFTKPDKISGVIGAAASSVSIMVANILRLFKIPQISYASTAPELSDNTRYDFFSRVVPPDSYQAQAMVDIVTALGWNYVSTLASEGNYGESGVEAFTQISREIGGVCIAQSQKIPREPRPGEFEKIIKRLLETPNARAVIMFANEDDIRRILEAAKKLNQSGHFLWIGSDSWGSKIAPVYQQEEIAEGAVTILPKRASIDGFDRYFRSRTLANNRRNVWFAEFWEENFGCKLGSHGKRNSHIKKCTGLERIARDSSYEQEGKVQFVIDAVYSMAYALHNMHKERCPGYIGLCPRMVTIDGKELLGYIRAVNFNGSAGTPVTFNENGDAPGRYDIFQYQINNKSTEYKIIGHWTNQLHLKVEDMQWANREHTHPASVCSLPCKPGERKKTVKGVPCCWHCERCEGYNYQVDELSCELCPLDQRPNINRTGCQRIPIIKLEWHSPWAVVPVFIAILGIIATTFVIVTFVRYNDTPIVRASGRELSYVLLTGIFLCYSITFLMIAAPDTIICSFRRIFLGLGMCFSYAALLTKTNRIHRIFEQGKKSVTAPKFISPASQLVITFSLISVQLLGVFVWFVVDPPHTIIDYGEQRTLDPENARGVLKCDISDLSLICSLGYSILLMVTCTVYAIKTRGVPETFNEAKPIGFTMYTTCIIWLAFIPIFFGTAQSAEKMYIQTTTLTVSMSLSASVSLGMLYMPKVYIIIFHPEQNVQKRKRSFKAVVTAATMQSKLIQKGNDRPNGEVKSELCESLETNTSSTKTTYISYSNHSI
In turn, `COc1ccc(/C=C(/NC(=O)c2ccccc2)c2nc3ccccc3[nH]2)cc1OC` yielded a z-score of -0.133. In turn, `Cc1ccc2nc3c(cc2c1)c(NC(=O)C1CCCO1)nn3CC(C)C` (stereo unspecified) gave a z-score of -0.406. The compound `Cc1cc2c(cc1C)N(C(=O)CSC1=NCCS1)C(C)(C)c1ssc(=S)c1-2` displayed a z-score of -0.0869. The compound `N#C/C(=C(/O)c1ccco1)c1nc2ccccc2s1` registered a z-score of -0.306. `COc1cc(/C=C(\NC(C)=O)C(=O)NC(C)(C)C)ccc1OC(C)=O`: the z-score was -0.36. In the case of `C=CCn1c(SCC(=O)Nc2ccc(C(=O)OCC)cc2)nnc1-c1sc(N)nc1C`, the z-score is -0.275.

On to `COc1ccccc1C(=O)Nc1ccc(C)cc1C(=O)c1ccccc1`, for which the z-score was -0.242. For the compound `CCCCn1nnc(NC(=S)NC(=O)c2ccc(-c3cccc(Cl)c3Cl)o2)n1`, the z-score is active: 4.59. In turn, `Cc1cc(C(=O)OC2CCOC2=O)c2ccccc2n1` (stereo unspecified) showed a z-score of 0.209. `Cc1ccc(-n2ncc3c(=O)n(CC(=O)NC4CCCCC4)cnc32)cc1C`: the z-score is 0.456.

In turn, `COc1cc(Cl)cc(C2NC(=O)NC(C)=C2C(=O)NCc2ccccc2)c1O` (stereo unspecified) displayed a z-score of -0.322. The result for `C=CCNC(=O)c1cc2c(C(F)(F)F)nn(C)c2s1` reads -0.241; that for `FC(F)(F)c1cccc(Oc2ccc3c(C(F)(F)F)cc(C(F)(F)F)nc3n2)c1`, 0.182; that for `COc1ccc(-n2c(C)nc3cc(C(=O)NCCN4CCOCC4)ccc32)cc1`, -0.0514. Compound `CCCn1nc(C(=O)Nc2ccc3nc(C)sc3c2)c2ccccc2c1=O` gave a z-score of -0.783. The result for `CC(=O)c1cnc(Nc2nc(C)c3cc(C)ccc3n2)nc1C` reads 0.124; that for `COc1ccc(NC(=O)N2CCC(n3nnc4cc(C)ccc43)CC2)cc1`, 0.307; that for `CC(C)c1ccc(N2C(=O)CC(Sc3ncn[nH]3)C2=O)cc1` (stereo unspecified), 0.234.

`O=C(Nc1nnc(-c2ccco2)o1)c1ccc2ccccc2c1` gave a z-score of 2.95.

`O=C(CSc1nnc(-c2ccccc2F)n1CCc1ccccc1)Nc1ccc2[nH]c(=O)[nH]c2c1` displayed a z-score of 0.388. Compound `Cc1cc(C)nc(NC(=O)NS(=O)(=O)Nc2ccc(Br)cn2)n1` showed a z-score of -0.0493. In the case of `O=C(CSc1nnc(Cc2ccccc2)o1)N1CCOCC1`, the z-score is -0.0933. The result for `CC(C)(C)NC(=O)c1ccnc(C(C)(C)C)c1` reads -0.0801; that for `CCN(CC)S(=O)(=O)c1ccc(Cl)c(NC(=O)CSc2nnc(-c3cccs3)o2)c1`, -0.359. Take `O=C(NC1CCCCC1)c1cc([N+](=O)[O-])ccc1N1CCOCC1`: the z-score is 0.0241. `O=C(O)C1Nc2c(C(=O)N3CCOCC3)cccc2C2C=CCC12` (stereo unspecified) had a z-score of -0.486. The result for `C/C(=C\C(=O)c1cccnc1)Nc1ccc(O)cc1` reads -0.0452; that for `O=C(Nc1ccc(F)cc1)c1cccnc1NCCc1ccccc1`, -0.0811; that for `CC(/C=N/n1cnnc1)=C\c1ccccc1`, -0.198. The result for `Cc1ccc(CC(=O)NCc2ccc3c(c2)OCO3)cc1` reads 0.445; that for `CCN(CC)C(=O)CSc1nc(C)cc(-c2cccs2)c1C#N`, -0.163.

The compound `CC(C)(C)NC(=O)CN1CCC(O)(c2ccc3c(c2)OCO3)CC1` had a z-score of -0.45. Regarding `C=CCOc1c(Br)cc(CNn2nnnc2N)cc1OC`, the z-score came to 0.177. `Cc1cc2cc(CN(Cc3ccc4c(c3)OCO4)C(=O)c3cnccn3)c3nnnn3c2cc1C`: the z-score is -0.159.

On to `CC1(C)CC(CC(=O)NC(=S)Nc2ccc([N+](=O)[O-])cc2)C(=O)O1` (stereo unspecified), for which the z-score is 0.331. In turn, `CC(C)N1CCC(=NNc2ccc(S(=O)(=O)N3CCOCC3)cc2[N+](=O)[O-])CC1` registered a z-score of 0.0912. For `Cc1cccc(NC2SC(=O)N(CC(=O)O)C2=O)c1` (stereo unspecified), the z-score is -0.0915. `CC1=CC(C)(C)NC(=S)N1c1cccc2ccccc12`: the z-score is -0.0628.

As to `COc1nc(N=C(N)N)nc2c(C)cccc12`, the z-score was -0.132. The compound `COc1ccc(C(=O)N2CC3(C)CC2CC(C)(C)C3)cc1OC` (stereo unspecified) came in with a z-score of -0.252. In turn, `COC(=O)C1=C(C)Nc2ncnn2C1c1ccccn1` (stereo unspecified) had a z-score of -0.0706. In the case of `COC(=O)C1=C(C)N=c2s/c(=C3\C(=O)Nc4ccccc43)c(=O)n2C1c1ccccc1` (stereo unspecified), the z-score came out at 0.131.

For `Cc1ccc(CSc2ncnc3c2cnn3Cc2ccccc2)cc1`, the z-score is -0.449. The compound `CC(C(=O)O)N1C(=O)/C(=C/C=C/c2ccco2)SC1=S` (stereo unspecified) returned a z-score of -0.305. As for `CCOc1ccc(C(=O)N2CCSC2=S)cc1`, the z-score is -0.052.

`O=C(CN1C2CCCC1CC(NC(=O)c1ccco1)C2)Nc1ccccc1` (stereo unspecified) returned a z-score of -0.992. The result for `COc1cccc(-n2c(SCC(=O)c3c[nH]c4ccccc34)nc3ccccc3c2=O)c1` reads -0.0633; that for `O=S(=O)(c1ccc(Br)s1)N1CCN(Cc2ccc3c(c2)OCO3)CC1`, 0.231. `CN1CCN(c2ccc([N+](=O)[O-])cc2S(=O)(=O)N2CCOCC2)CC1` gave a z-score of 0.0267.

Compound `O=C(Cc1cc(=O)[nH]c(=O)[nH]1)NCC1CCCO1` (stereo unspecified) yielded a z-score of 0.0579. In the case of `C=CCOn1c(=O)c(-c2cccs2)[n+]([O-])c2ccccc21`, the z-score was active: 3.49. The result for `Cc1cccc(N=C2NC(=O)CS2)c1C` reads -0.967; that for `CCCC1=[N+](CC(=O)c2ccc(C)cc2)CCn2cccc21`, -0.333. As to `CN(CCc1ccccn1)S(=O)(=O)c1ccc2c3c(cccc13)C(=O)N2`, the z-score turned out to be 1.84. `Cc1ccc2oc(-c3cccc(NC(=S)NC(=O)/C=C/c4ccco4)c3)nc2c1`: the z-score was -0.494. `O=C(c1cccnc1)N(c1cc2sc(=O)oc2c2ccccc12)S(=O)(=O)c1ccccc1` registered a z-score of -0.0775. The result for `CC/C(=N\NC(=O)CNC(=O)/C=C/c1ccco1)c1ccccc1` reads -0.106; that for `O=C(Cc1ncc(C(F)(F)F)cc1Cl)N1CCN(c2cccc(Cl)c2)CC1`, -0.497. The result for `O=C(Nc1nc(-c2ccccc2)cs1)c1cccc([N+](=O)[O-])c1` reads -0.264; that for `CCN1CCN(C(=O)c2cn(CC)c3ccc(S(=O)(=O)N(C)C)cc3c2=O)CC1`, 0.0639. `Cc1ccccc1NS(=O)(=O)c1ccc(OCC(=O)N2CCCC2)cc1` yielded a z-score of 0.78.

In turn, `COc1ccc(C2CC(c3ccccc3)=NN2S(=O)(=O)c2ccccc2)c(OC)c1` (stereo unspecified) showed a z-score of -0.152. As to `CN(C)c1ccc(N=Nc2ccccc2C(=O)OCC(=O)N2CCCC2)cc1`, the z-score was -0.116.

Compound `Cc1ccccc1-c1nc2sc3c(c2c(=O)o1)CCC3` returned a z-score of -0.265. With `Cc1ccc(N2C(=O)CC(Sc3nc4ccccc4o3)C2=O)cc1Cl` (stereo unspecified), the z-score amounted to 0.163. In turn, `Cc1ccccc1NC(=O)CSc1[nH]c(=O)cc(C)c1C#N` registered a z-score of -0.0106. For `CCOC(=O)c1c(C)c(C(=O)Nc2ccc3c(c2)OCO3)c(C)n1C`, the z-score was -0.165. In the case of `CCOCC(O)CSCc1ccc(Cl)cc1` (stereo unspecified) it was -0.407. The compound `Cn1cccc1Cc1nnc(SCC(=O)Nc2nc3ccccc3s2)n1CCc1ccccc1` displayed a z-score of -0.371.

Consider `C=CCSc1nnc(-c2c[nH]c3ccccc23)n1CC`, for which the z-score came out at 0.312.

With `O=C(CSCC(=O)Nc1ccc2ccccc2c1)NCc1ccccc1`, the z-score is 0.1. Compound `Cc1cc(C)n(-c2nnc(C)n2NC(=O)c2cccc(Cl)c2)n1` had a z-score of 0.0281.

On to `COc1cc2nc(-c3ccccc3)nc(N3CCCC3)c2cc1OC`, for which the z-score stood at 0.413.

Turning to `COC(=O)c1ccc(C(=O)OC)c(NC(=O)Nc2ccc3c(c2)OCO3)c1`, the z-score worked out at 0.0202. On to `Cc1cccc(OCCCC(=O)NC(C)C)c1`, for which the z-score is -0.39.

On to `C=C(C)CSc1nnc(-c2cc(OC)c(OC)c(OC)c2)n1N`, for which the z-score is 0.871. Turning to `N#Cc1ccccc1NC(=O)c1ccc2c(Cl)c3c(nc2c1)CCCC3`, the z-score came out at 0.383.

Compound `CCC(C(=O)Nc1cc(C)on1)c1ccccc1` (stereo unspecified) came in with a z-score of 0.091.

In turn, `O=C(CC1C(=O)NCCN1C(=S)Nc1ccccc1)Nc1ccc2c(c1)OCCO2` (stereo unspecified) came in with a z-score of 0.143. In the case of `CC1C(C)C(O)(c2ccccc2)CCN1C` (stereo unspecified) it was 0.788. `CCOC(=O)Cc1csc(NC(=O)c2cc3c(s2)CCCC3)n1` yielded a z-score of -0.559.

`CC(=O)c1cccc(NC(=O)c2ccco2)c1` returned a z-score of -0.295. In turn, `CSc1cnn(Cc2ccccc2)c(=O)c1SCc1ccccc1` registered a z-score of -0.434. As to `CN(/N=C/c1ccncc1)C1=NS(=O)(=O)c2ccccc21`, the z-score is -0.104. For the compound `COC(=O)c1ccccc1NC(=O)c1cc2ncc(Br)cn2n1`, the z-score is -0.044. The compound `Cc1ccc(C)c(NC(=O)CSc2nc3[nH]ncc3c(=O)[nH]2)c1` registered a z-score of 0.194. In the case of `Cc1csc(C2=C(O)CN(c3ccc4c(c3)OCCOCCOCCOCCO4)C2=N)n1`, the z-score was -0.137. The result for `CCOC(=O)C1=C(N)OC2=C(C(=O)CC(C)(C)C2)C1c1cccs1` (stereo unspecified) reads -0.546; that for `Cc1ccc(S(=O)(=O)N2CCCC2C(=O)NCc2ccco2)cc1` (stereo unspecified), 0.608; that for `C=CCn1c(-c2csc3c2CCC(C)C3)n[nH]c1=S` (stereo unspecified), 0.494. Consider `O=C1C(c2cc(=O)c3ccccc3[nH]2)=C(O)c2ccccc21`, for which the z-score was -0.218. With `O=C(CCc1nc2ccccc2n1-c1ccccc1)NCCO`, the z-score is -0.0451.

As for `CCCN1C(=O)N(C)C(N(O)C(=O)NC)C1(C)C` (stereo unspecified), the z-score was determined as 0.256. `Cc1ccc(C(O)(c2ccccc2)c2ccccc2C(C)N(C)C)c(C)c1` (stereo unspecified) displayed a z-score of 0.319. In the case of `Cc1ccccc1N1CCN(CCCOc2ccc3c(C)cc(=O)oc3c2)CC1` it was 0.285.

Turning to `N/C(=N\OC(=O)COc1ccccc1)c1ccc(Cl)cc1`, the z-score was -0.224. The compound `Cn1c(=O)c2c(nc(N3CCN(c4ccccc4)CC3)n2CCCc2ccccc2)n(C)c1=O` yielded a z-score of 0.204.

Take `Cc1onc(-c2c(F)cccc2Cl)c1C(=O)NC(=S)NC1CCSC1=O` (stereo unspecified): the z-score is -0.17. Consider `COC(=O)c1ccccc1NC(=O)NCc1ccco1`, for which the z-score stood at 0.182. Take `CC(=O)c1c(N2CCCC2)nc(=S)n(-c2ccccc2)c1C`: the z-score is -0.0779.

The compound `O=C(CSc1ccc2nnc(-c3ccccn3)n2n1)N1CCOCC1` yielded a z-score of -0.254. In turn, `COc1cc2[nH]c(=S)n(CCN3CCOCC3)c(=O)c2cc1OC` gave a z-score of -0.262. As for `Cn1ncc2c(=O)n(CC(=O)NC34CC5CC(CC(C5)C3)C4)cnc21`, the z-score is -0.265.

For the compound `CCOc1ccc(NC(=O)CN(C)c2ccc(S(=O)(=O)N(C(C)C)C(C)C)cn2)cc1OCC`, the z-score is -1.25.

Take `O=C(O)CCC(=O)NCc1ccc(C(=O)O)cc1`: the z-score is 0.0322. `COC(=O)c1cc(S(=O)(=O)N2CCC(C)CC2)ccc1F` returned a z-score of 0.00732. The compound `COc1cc(-c2nnc(-c3cc(OC)c(OC)c(OC)c3)o2)cc(OC)c1OC` showed a z-score of -1.02. Regarding `CC1CCCN(CCCNC(=O)c2coc3nc4ccccc4nc23)C1` (stereo unspecified), the z-score turned out to be 0.00229.

For `OC1(c2ccc3ccccc3c2)CCN(Cc2ccccc2)C1` (stereo unspecified), the z-score was found to be 2. The result for `Cc1cc(N2CCN(C)CC2)nc2ccc(NC(=O)CCC(=O)NCCC3=CCCCC3)cc12` reads -2.01; that for `COC(=O)c1ccc(Sc2ccccn2)c([N+](=O)[O-])c1`, -0.0262.
